Source: the RNAGym collection of RNA variant scans (doi:10.1073/pnas.2313332121)
Variants at the floor of the assay are shown more often than the library holds them.

B1: TPR 5TU (parent)
chain: GGAUCUUCUCGAUCUAACAAAAAAGACAAAUCUGCCACAAAGCUUGAGAGCAUCUUCGGAUGCAGAGGCGGCAGCCUUCGGUGGCGCGAUAGCGCCAACGUUCUCAACUAUGACACGCAAAACGCGUGCUCCGUUGAAUGGAGUUUAUCAUG

Variants of: B1
Experiment: polymerase ribozyme fitness, log enrichment relative to wild type (log ratio); higher = more active; in vitro selection for triplet polymerase activity
Method in brief: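 Frozen incubation at −7 °C formed the core of a single, triplicate in vitro selection round applied to PCR-built, transcribed mutant libraries of each subunit of a heterodimeric triplet polymerase ribozyme. Extended constructs were gel-excised, captured with streptavidin beads and amplified by RT-PCR, and input and output libraries were Illumina-sequenced with a filter of ≥10 input reads and ≥1 read per output. Fitness is the logarithm of genotype enrichment relative to wild-type enrichment, with inverse-variance-weighted replicate averaging, and the logarithm is base 2.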

For GGAUCUUCUCGGUCUAACAAAAAAGACAAAUCUGACACAAAGCUUGAGAGCAUCUUCGGAUGCAAAGGCGGCAGCCUUCGGUGGCGCGAUAGCGCAAACGUUCUCAACUAGGACACGCAAAACGCGUGCUCCGUUGAAUGGAGUUUAUCAUG [A12G C35A G65A C96A U111G], which “polymerase ribozyme fitness (log ratio)” value is on record?
The value was at most -4.2.

With GGAUCUUCUCGGUCUAACAAAAAAGACAAAUCUGCCACAAAGCUUGAGAGCAUCUUCGGAUGCAGAGGCGGCAGCCUUCGAUGGCGGGAUAGCGGCUACGUUCUCAACUAUGACUCGCAAAACGAGUGCUCCGUUGAAUGGAGUUUAUCAUG [A12G G81A C87G C95G A97U A115U C125A] as the variant, how does the “polymerase ribozyme fitness (log ratio)” value read?
The value was at most -4.2.

Which “polymerase ribozyme fitness (log ratio)” value does the source give for GGAUCUUCUCGGUCUAACAAAAAAGACAAAUCUGCCACAAAGCUUGAGAGCAUCUUCGGAUGCAGAGGCGGGAGCCUUCGGUGGCGGGAUAGCGCCAACGUUCUCAACUAUGACACGCAAAACGCGUGCUCCGUUGAAUGGAGUUGAUCAUG [A12G C72G C87G U146G] here?
The value was at most -4.2.

For GGAUCUUCUCGGUCAAACAAAAAAGCCAAAUCUGCCACAAAGCAUGAGAGCAUCUUCGGAUGCAGAGGCGGCAGCCUUCGGUGGCGCGAUAGCGCUAACGUUCUCAACUAUGACACGCAAAACGCGUGCUCCGUUGAAUGGAGUUUAUCAUG [A12G U15A A26C U44A C96U], which “polymerase ribozyme fitness (log ratio)” value is on record?
The value was at most -4.2.

Which “polymerase ribozyme fitness (log ratio)” value does the source give for GGAUCUUCUCGGUCUAACAAAAAAGACAAAUCUGCCACAAAGCUUGAGAACAUCUUCGGAUGCAGAGGCUGCAGCCUUCGGUGGCGCGAUAGCGGCAACGUUCUCAACUAUGACAUGCAAAACGCGUGCUCCGUUGAAUGGCGUUUAUCAUG [A12G G50A G70U C95G C116U A142C] here?
Its value is at most -4.2.

For GGAUCUUCUCGGUCUAACAAAAAAGACAAAACUGCCACAAAGCUUGAGAGCGUCUUCGGAUGCAGAGGCGGCAGCCUUCGGUGGCGGGAUAGCACCAACGUUCUCAACUAUGACACGCAAAACGCGUGCUCCGUUGAAUGGAGUUUAUCAGG [A12G U31A A52G C87G G94A U151G], which “polymerase ribozyme fitness (log ratio)” value is on record?
Its value is at most -4.2.

Which “polymerase ribozyme fitness (log ratio)” value does the source give for GGAUCUUCUCGGUCUAACAAAAAAGACAAAUCUACCACAAAGCUUGAGAGCAUCUUCGGAUGCAGAAGCGGCAGCCUUCGGUGGCGCGAUAGCGCCAACGUUGUCAACUAUGCCACGAAAAACGCGUGCUCCGUUGAAUGGAGUUUAUCAUG [A12G G34A G67A C103G A113C C118A] here?
The value was at most -4.2.

Which “polymerase ribozyme fitness (log ratio)” value does the source give for GGAUCUUCUCGGUCUAACAAAAAAGACAAAUCUGCCACAAAGCUUGAGAGCAUCUUCGGAUGUAGAGGCGGCAGCCUUCGGUGGCGCGAUAGCGCCAACGUUCUCAACUAUGACACGCAAAACGCGUGCUCCGAUGAAUGGAGUUUAUCAUG [A12G C63U U134A] here?
The value was -2.26.

With GGAUCUUCUCGGUCUAACAAAAAAGACAAAUCUGCCACAAAGCUUGAGAGCAUCUUCGGAUGCAGAGGCGGCAGCCUUCCGUGGCGCGAUAGCGUCAACGUUCUCAAUUAUGACACGCAAAACGCGUGCUCCGUUGCAUGGAGUUUAUCAUG [A12G G80C C95U C108U A137C] as the variant, how does the “polymerase ribozyme fitness (log ratio)” value read?
The value was at most -4.2.

Which “polymerase ribozyme fitness (log ratio)” value does the source give for GGAUCUUCUCGGUCUAACAAAAAAGACAAAUCUGCCAUAAAGCUUGAGAGCCUCAUGGGAUGCAGAGGCGGCAGCCUUCGGUGGCGCGAUAGCGGCAACGUUCUCAACUAGGACACGCAAAACGUGUGAUCCGUUGAAUGGAGUUUAUCAUA [A12G C38U A52C U55A C57G C95G U111G C125U C129A G152A] here?
Its value is at most -4.2.

For GGAUCUUCUCGGUCUAACAAAAAAGACAAAUCUGCCACAAAGCUUGAGAUGAUCUUCGGAUGCAGAGGCGGCAGCCUUCGGUAGCGCGAAACCGCCAUCGUUCUCAACAAUGACACGCAAAACGCGUGCUCCGUUGAAUGGAGUUUAUCAUG [A12G G50U C51G G83A U90A G92C A98U U109A], which “polymerase ribozyme fitness (log ratio)” value is on record?
Its value is at most -4.2.

With GGAUCUUCUCGGUCUAACAAAAAAGACAAAUCUGCCACAAAGCUUGAAAGCAUUUUCGGAUGCAGAGGCGGCAGCCUUCGGUGGGGCGAUAGCGCCAACGUUCUCAACUAUGACACUCAAAACGCGUGCUCCGUUGAAUGGAGUUUAUCAUG [A12G G48A C54U C85G G117U] as the variant, how does the “polymerase ribozyme fitness (log ratio)” value read?
The value was -2.26.

For GGAUCUUCUCGGUCUAACAAAAAAGACAAAUCUGUCACAAAGCUUGAGAGCAUCUUCGGAUGCAGAGGCGGCAGCCUUCGGUAGCGCGAUAGCGCCAACGUUCUCAACUAUGACACGCAAAACGCGUGCUCCGUUGAAUGGAGUUUAUCAUG [A12G C35U G83A], which “polymerase ribozyme fitness (log ratio)” value is on record?
The value was -0.598.

With GGAUCUUCUCGGUCUAACAAAAAAGACAAAUCUGCCACAAAGCUUGAGAGCAUCUUCGGAUGCAGAGGCGGCAGCCUUCGGUAGCGCGAUAGCGCCAACGUUCUCAACUAUGACACGCAAAACGCGUGCUCCCUUGAAUGGAAUUGAUCAUG [A12G G83A G133C G143A U146G] as the variant, how does the “polymerase ribozyme fitness (log ratio)” value read?
Its value is -3.34.

Which “polymerase ribozyme fitness (log ratio)” value does the source give for GGAUCUUCUCGGUCUAACAAAAAAGACAAAACUGCCACAAAGCUUGAGAGCAUCAUCGGAUGCAGAGGCGGCAGCCAUCGGUGGCGCGAUAGUGCCAACAUGCUCAACUAUGACACGCAAAACGCGUGCUCCGUUGAAUCGAGUUUAUCAUG [A12G U31A U55A U77A C93U G100A U102G G140C] here?
The value was at most -4.2.

Which “polymerase ribozyme fitness (log ratio)” value does the source give for GGAUCUUCUCGGUCUAACAAAAAAUACAAAUCUGCCACAAAGCUUGAGAACAUAUUCGGAUGCAGAGGCGUCAGCCUUCAGUGUCGCGAUAGCGCCAACGGUCUCAACUAUGACACGCAAAACGCGUGCUCCGUUGAAUGGAGUUUAUCAUG [A12G G25U G50A C54A G71U G80A G84U U101G] here?
Its value is at most -4.2.

For GGAUCUUCUCGGUCUAACAAAAAAGACAAAUCUUCCACUAAGCUUGAGAGCAUCUUCGGAUGCAGAGGCGGCAGCCUUCGGUGGGGCGAUAGCGCCAACGUUCUCAACUAUGACAAGCAAAACGCGUGCUCCGUUGAAUGGAGUUUAUCAUG [A12G G34U A39U C85G C116A], which “polymerase ribozyme fitness (log ratio)” value is on record?
Its value is at most -4.2.

For GGAUCUUCUCGGUCUAACAAAAAAGACAAAUCUGCCACAAAGCUUGAGAGCAUCUUCGGAUGCAGAGGCCGCAGCCUUCGGUGGCGCGAUAGCGCCAACGUUCUCAACUAUGCCACGCAAAACGCGUGCUCCGUUGAAUGGAGCUUCUCAUG [A12G G70C A113C U144C A147C], which “polymerase ribozyme fitness (log ratio)” value is on record?
The value was at most -4.2.

Which “polymerase ribozyme fitness (log ratio)” value does the source give for GGAUCUUCUCGGUCUAACAAAAAAGACAAAUCUGCGACAAAGCUUGAGAGCAUCUUCGGAUGCAGAGGCGGCAGCCUUCGGUGGCGCGAUAGCGCCAUCGUUCUCAACUAUGACACGCAAAACGCGCGCUCCGUUGAAUGGAGUUUAUCAUG [A12G C36G A98U U127C] here?
The value was at most -4.2.
